Hit rate of the full screen: of about 360,000 compounds, about 6,000 (1.7%) were called active. Inconclusive means that the source gave no clear call. Such entries were picked first, then a sample of the others. The call rests on the fitted dose curve; in most records, active means well fitted cell-killing curve with a large enough effect; inconclusive means small, poorly fitted or top-dose-only effect, or effect the other way; inactive means flat fitted curve, though single readings scatter. No potency is given beside an inconclusive call; the fits are too rough.
Test: qHTS for induction of synthetic lethality in tumor cells producing 2HG: qHTS for the HT-1080-NT fibrosarcoma cell line;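 further: NT is the 2HG producing partner of a matched IDH1 knockdown line; nearly all actives have a fitted effect of over 55% in size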;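 on activity, negative = less viability: 0% = DMSO-treated cells and -100% = media-only wells without cells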
Conditions: HT-1080-NT fibrosarcoma viability, CellTiter-Glo ATP luminescence, 48 h; activity, negative = less viability: at 46.1 µM (top of the series) unless noted
In short: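 750 cells/well, RPMI + 5% FBS; 2 h settle, compound pin-transfer, 48 h at 37 degrees C. CellTiter-Glo 10 min RT, luminescence. Normalized to DMSO and media-only wells.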
Potency means the concentration at half of the fitted maximal effect; tags describe the fitted curve by direction and shape.

SMILES | Potency | activity, negative = less viability
Cc1c(C(=O)Oc2cccc3cccnc23)oc2ccccc12 | active: 23.1 µM | 
Cc1nn(CC(=O)NC2CCS(=O)(=O)C2)c(C)c1[N+](=O)[O-] (stereo not given) |  | inactive: -6.5%
Cc1ccc(/C=N/Nc2ccnc3cc(Cl)ccc23)c(C)c1 | inconclusive [cytotoxic, single point] | 
CCN(CC)C(=O)CSc1nc2ccccc2c(=O)n1CCC(=O)NCc1ccc(F)cc1 |  | inactive: 2.77%
CCN(CC)C(=O)[C@H]1C[C@H](CC(=O)NC/C=C(\C)CCC=C(C)C)C(=O)N2CCc3c([nH]c4cc(-c5ccco5)ccc34)[C@]12C | inconclusive [cytotoxic, single point] | 
CCOc1cc(/C=C2/NC(=O)N(Cc3ccccc3F)C2=O)ccc1O | inconclusive [cytotoxic, single point] | 
O=C(NCc1ccccc1)c1ccc(Cl)cc1 |  | inactive: 12.3%
CCCCc1nc2ccc(F)cc2cc1C | inconclusive [rising, single point] | 
COc1ccccc1N1CCN(c2nc(C)nc3c2oc2ccccc23)CC1 | active: 1.12 µM | 
Cc1ccc(OCC(O)CNCc2ccc(F)cc2)cc1 (stereo not given) |  | inconclusive: -32.4% [cytotoxic]
COc1ccc2c(c1)C(C)=CC(C)(C)N2C(=O)CNCc1ccc2c(c1)OCO2 | inconclusive [cytotoxic, single point] | 
Oc1ccc(CCNc2c3ccccc3nc3ccccc23)cc1O | active: 23.1 µM | 
COC(=O)C(=Nc1ccccc1)/C(C(=O)C(=O)N(C)c1ccccc1)=C(\O)c1ccccc1 | inconclusive [rising, single point] | 
Cc1ccccc1N1CCN(C(=S)c2ccc([N+](=O)[O-])cc2)CC1 |  | inactive: -6.09%
COc1ccc(S(=O)(=O)N2c3ccccc3OCC2c2ccccc2)cc1 (stereo not given) | inconclusive [cytotoxic, single point] | 
O=C(NCCCN1CCOCC1)/C(=C/c1cccs1)NC(=O)c1ccccc1 | inconclusive [rising, single point] | 
COc1ccc2nc(Nc3sc4c(c3C(N)=O)CCCC4)sc2c1 |  | inactive: -12.7%
O=C1NC[C@H](CCCCN2C[C@H](Cc3ccc(O)cc3)N(CC3CCCCC3)C(=O)C2=O)N(CCc2ccccc2)C1=O |  | inactive: 14.5%
O=C(CCl)NC1CCCc2ccccc21 (stereo not given) | inconclusive [cytotoxic, single point] | 
CCOC(=O)N1CCN(C(=O)COC(=O)c2cc(C)ccc2C)CC1 |  | inactive: 8.92%
Cc1cccc(NC(=S)NC(NC(=O)c2ccco2)C(Cl)(Cl)Cl)c1 (stereo not given) | inconclusive [cytotoxic, single point] | 
COc1cccc(-n2ccnc2SCC(=O)N2CCCc3ccccc32)c1 |  | inactive: 4.7%
Cc1ccc(C2=CSC3=NCCN23)c(C)c1 |  | inactive: -0.0687%
CCOC(=O)C1(Cc2ccc(OC)cc2)CCN(S(C)(=O)=O)CC1 |  | inactive: -1.99%
O=Cc1cc2ccccc2nc1SCc1ccc(Cl)c(Cl)c1 | active: 4.11 µM | 

SMILES | Potency | activity, negative = less viability
Cc1ccc(Nc2cc(C)nn2-c2nc(C)cc(=O)[nH]2)cc1 |  | inconclusive: -33.3% [cytotoxic]
O=C(NCc1ccccc1)c1cc(C2CCCN(S(=O)(=O)c3cccs3)C2)on1 (stereo not given) |  | inactive: 20.3%
N#CC1=C(N)N(c2ccccc2Sc2ccccc2)C(=O)C1 |  | inactive: -3.79%
OCCN1CCN(c2nc(-c3ccccc3)c3cc(Br)ccc3n2)CC1 | inconclusive [cytotoxic, single point] | 
CCOC(=O)Cn1cc(/C=N/NC(=O)c2cc3ccccc3o2)c2ccccc21 |  | inactive: -0.408%
Cc1ccc(NC(=O)COc2ccc(Br)cn2)cc1 |  | inactive: 11.2%
C/C(=N\NC(=O)c1ccc(NS(=O)(=O)c2cccs2)cc1)c1ccccn1 | inconclusive [cytotoxic, partial curve, poor fit] | 
CC(C)OCCCNC(=O)CN1CCN(Cc2ccccc2Cl)C1=O |  | inactive: -3.74%
CCN(CC)CCNC(=O)CCc1c(C)nc2c(c(C)nn2-c2ccc(C)c(C)c2)c1C | inconclusive [cytotoxic, single point] | 
COC(=O)C1=C(Nc2ccc(C)cc2)C=C(C)C(C(=O)OC)C1c1cccc(OC)c1 (stereo not given) | inconclusive [cytotoxic, single point] | 
COc1cccc(C(=O)CN2C3=NCCCN3c3ccccc32)c1 |  | inactive: -11.5%
COc1ccc(-c2ccc3c(c2)O[C@H](CN(C)C(=O)Nc2ccccc2F)[C@@H](C)CN([C@H](C)CO)S3(=O)=O)cc1 |  | inactive: -15.9%
O=C(O)c1ccc2c3c(ncnc13)-c1ccccc1C2=O | inconclusive [cytotoxic, partial curve] | 
O=C(NC1CCCCC1)N1CCC(c2nc(-c3ccc(S(=O)(=O)N4CCCC4)cc3)no2)CC1 |  | inactive: -0.834%
COC(=O)CCC(=O)Nc1ccc2oc3c(c2c1)CCCC3 |  | inactive: -2.27%
Oc1ccccc1C1CC(c2cccs2)=NC(c2cccc(Br)c2)N1 (stereo not given) | inconclusive [cytotoxic, single point] | 
CCN1CCN(S(=O)(=O)c2cc(OC)ccc2OC)CC1 |  | inactive: 2.43%
Cc1ccc(-c2nc3c4ccccc4ccn3c2Cc2cccc(Cl)c2)cc1 | inconclusive [cytotoxic, partial curve] | 
CC[C@]12C(=O)N(C)C[C@H]([C@@H]3C(=O)N(Cc4ccccc4)C(=O)[C@@H]31)N2C(=O)c1ccc(C(C)(C)C)cc1 |  | inactive: 4.68%
O=C(CN1CCCCCC1)N/N=C/c1ccc2ccccc2c1 |  | inconclusive: 31.8%
Cc1ccccc1N1CCN(C2CCCN(C(=O)CCC3(C)CC3)C2)CC1 (stereo not given) |  | inactive: 0.69%
Cc1ccc(/C=N/NC(=O)c2cc(-c3ccncc3)nc3ccccc23)o1 | inconclusive [cytotoxic, full curve] | 
Cc1ccc(C)c(NC(=S)N2CCC(NC(=O)c3ccccc3)CC2)c1 |  | inactive: 18.3%
O=C(O)CCS(=O)(=O)c1nc(-c2cccs2)cc(C(F)(F)F)n1 | inconclusive [cytotoxic, single point] | 
COc1ccc(-c2cc(C(=O)N3CCCC3)no2)cc1OC | inconclusive [rising, partial curve] | 
